# Out of some 390,000 compounds screened, about 1,400 (0.36%) were called active. The inconclusive results got no clear call from the source; some entries with a clear call stand among them for comparison. Calls come from the whole dose curve; as a rule, active = well fitted inhibition curve with a large enough effect; inconclusive = small, poorly fitted or top-dose-only effect; inactive = no such curve, though single readings can be large or run the other way. Potencies of inconclusive entries are doubtful fits and often do not repeat.
# Target: Flap endonuclease 1 (Homo sapiens) (UniProt P39748)
# Experiment: qHTS Assay for the Inhibitors of Human Flap endonuclease 1 (FEN1). Note: nearly all actives have a fitted effect of over 65% in size.
# Conditions: Recombinant FEN1 flap cleavage, fluorescence, 15 min; series mostly up to 114 µM; activity change, negative = inhibition: at the top concentration
# Source text: The major human flap endonuclease FEN1 is an efficient structure-specific enzyme that recognizes and cleaves a 5'-unannealed DNA flap. It belongs to the RAD2 family nucleases, which are involved in DNA metabolism and are highly conserved in prokaryotes and eukaryotes. FEN1 is a key enzyme in DNA replication, repair and maintenance of genomic stability. 5'-flap removal by FEN1 is critical for Okazaki fragment processing during lagging strand DNA synthesis, long-patch base excision repair (LP BER), and regulating or facilitating recombination events. […] Deletion of the yeast FEN1 gene, i.e. rad27, results in an increased frequency of short DNA (3-32 bp) repeats, micro- and mini-satellite formation, trinucleotide repeat expansion, spontaneous recombination events, and a severe growth defect in association with cell cycle arrest in late S/G2 phase. […] Cells from fen1-/- blastocysts show increased apoptotic cell death after ionizing radiation treatment, and chicken cells lacking the fen1 gene are hypersensitive to DNA alkylating agents, e.g. methylmethane sulfonate (MMS) and N-methyl-N'-nitro-N-nitrosoguanidine (MNNG), as well as hydrogen peroxide.
# NIH Chemical Genomics Center [NCGC]
# NIH Molecular Libraries Probe Centers Network [MLPCN]
# Assay Submitter (PI): David Wilson, National Institute of Aging
# Three uL of reagents (buffer in column 3 and 4 as negative control and 10 nM FEN1 in columns 1, 2, and 5-48) were dispensed into 1,536-well black solid-bottomed plate. Compounds (23 nL) were transferred via Kalypsys pin tool equipped with 1536-pin array (10 nL slotted pins, V&P Scientific, San Diego, CA). The plates were then incubated for 15 min at room temperature, and 1 uL substrate (50 nM final concentration) were added to start the reaction read twice at 0 min read and 15 min on ViewLux reader. Throughout the screen, reagent bottle and all liquid lines were chilled and made light-tight to minimize reagent degradation. All screening operations were performed on a fully integrated robotic system (Kalypsys, San Diego, CA) containing one RX-130 and two RX-90 anthropomorphic robotic arms (Staubli, Duncan, SC). Library plates were screened starting from the lowest and proceeding to the highest concentration, and a "double-dipping" step of the highest concentration was required to access higher concentrations of compounds. Vehicle-only plates, with DMSO being pin-transferred to the entire column 5-48 compound area, were inserted uniformly at the beginning and the end of each library in order to monitor for and record any shifts in the background, which can be affected by reagent dispensers or loss in enzyme activity overtime. Screening data was corrected, normalized, and concentration-effect relationships were derived by using publicly-available curve fitting algorithms developed in-house (http://ncgc.nih.gov/pub/openhts). A four parameter Hill equation was fitted to the concentration-response data by minimizing the residual error between the modeled and observed responses.
# % is set by controls: 0 for no effect and ±100 for the full control effect; potency is the fitted concentration of half-maximal effect; tags give direction and shape of the fitted curve.
# Sequence of UniProt P39748 (P39748 whole entry, looked up): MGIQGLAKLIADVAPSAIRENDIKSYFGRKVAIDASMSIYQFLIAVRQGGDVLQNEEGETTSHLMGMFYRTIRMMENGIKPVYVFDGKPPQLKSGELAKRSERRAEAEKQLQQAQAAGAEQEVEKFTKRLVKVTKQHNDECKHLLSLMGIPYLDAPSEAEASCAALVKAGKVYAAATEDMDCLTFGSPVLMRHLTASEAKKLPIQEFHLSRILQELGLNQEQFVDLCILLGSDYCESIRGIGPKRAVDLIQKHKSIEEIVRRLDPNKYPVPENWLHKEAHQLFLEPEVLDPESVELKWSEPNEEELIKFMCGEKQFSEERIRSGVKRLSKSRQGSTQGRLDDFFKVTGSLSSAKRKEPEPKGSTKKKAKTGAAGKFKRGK
Compound,Potency,"activity change, negative = inhibition"
CN1CC(c2ccccc2)C2(COc3ccccc3C2=O)C12C(=O)Nc1ccccc12 (stereo unspecified),"inconclusive: 56.2 µM [inhibitor, partial curve, poor fit]",–
S=c1[nH]nc(-c2cc(-c3ccccc3)n[nH]2)n1/N=C/c1c(Cl)cccc1Cl,"inconclusive: 79.4 µM [inhibitor, single point]",–
CSc1ccc2c(c1)C(N1CCN(C)CC1)Cc1ccccc1S2 (stereo unspecified),"inconclusive: 44.7 µM [inhibitor, partial curve, poor fit]",–
CCc1cc2cc(C)ccc2nc1SCC(=O)N1CC(=O)Nc2ccccc21,–,inactive: 9.74%
COc1ccc(OC)c(C2CC(=O)N3CN(c4ccc(C)c(Cl)c4)CSC3=C2C#N)c1 (stereo unspecified),"inconclusive: 56.2 µM [inhibitor, partial curve, poor fit]",–
CCCCN(C(=O)c1ccc(-c2ccc(Cl)cc2)o1)c1c(N)n(CCCC)c(=O)[nH]c1=O,"inconclusive: 28.2 µM [inhibitor, partial curve, poor fit]",–
COc1ccc(/C=N/NC(=O)c2ccncc2)cc1CN1CCCc2ccccc21,"inconclusive: 79.4 µM [inhibitor, single point]",–
Cc1cccc(C)c1NC(=O)Cn1c(=O)n(Cc2ccc3c(c2)OCO3)c(=O)c2oc3ccccc3c21,–,inactive: 6.79%
COc1ccc(/C=N/Nc2cc(C)nc3c(C)cccc23)cc1,active: 17.8 µM,–
CC(C)(C)c1ccc(C(=O)NCC(c2cccs2)S(=O)(=O)c2cccs2)cc1 (stereo unspecified),"inconclusive: 79.4 µM [inhibitor, partial curve]",–
CN(C(=O)c1ccc(NC(=O)Cc2cccc([N+](=O)[O-])c2)cc1)C1CCCC1,"inconclusive: 89.1 µM [inhibitor, partial curve, poor fit]",–
CN(CC(=O)Nc1cccc(F)c1)C(=O)c1ccc(OCc2cn3ccccc3n2)cc1,–,inactive: 10.5%
CCSc1nnc(NC(=O)[C@@H](NC(=O)c2cc(OC)cc(OC)c2)C(C)C)s1,–,inactive: 2.08%
COc1ccc([N+](=O)[O-])cc1NC(=O)C(C)Sc1ccc(C)cc1 (stereo unspecified),"inconclusive: 70.8 µM [inhibitor, partial curve, poor fit]",–
O=c1oc2ccccc2c2c1cnc1ccccc12,"inconclusive: 89.1 µM [inhibitor, single point]",–
CCOC(=O)c1ccc(Nc2c(-c3cccc(O)c3)nc3nc[nH]n23)cc1,–,inactive: 11.4%
COc1cc(OC)cc(-c2cc3cc(F)ccc3cn2)c1,"inconclusive: 89.1 µM [inhibitor, partial curve, poor fit]",–
CCOc1cc(-c2ccc(OC(=O)c3ccc(C)cc3)c(OC)c2)cc(=O)c2c(C)oc(C)c12,–,inactive: -2.1%
Oc1c(C=Nc2cccc3nsnc23)ccc2ccccc12,"inconclusive: 79.4 µM [inhibitor, partial curve, poor fit]",–
COc1ccc(CN/C(C)=C(/C#N)C(N)=O)cc1OC,–,inactive: -3.85%
CC1(OC(=O)CCc2ccccc2)C(=O)C=C2C=C(c3ccc(C#N)cc3)N(C3CCCC3)C=C2C1=O (stereo unspecified),"inconclusive: 22.4 µM [inhibitor, partial curve, poor fit]",–
Cc1ccsc1/C=N/N=C/c1sccc1C,–,inactive: 15.8%

Compound,Potency,"activity change, negative = inhibition"
Cn1c(N)c(C(=O)COC(=O)Cc2cccs2)c(=O)n(C)c1=O,–,inactive: 2.93%
Oc1ccc(C2Nc3cccc4cccc(c34)N2)c(O)c1,"inconclusive: 50.1 µM [inhibitor, partial curve]",–
O=C(OC1CCOC1=O)c1ccccc1C(=O)c1ccc(Cl)c([N+](=O)[O-])c1 (stereo unspecified),–,inactive: 1.5%
O=C(NC1CCCCC1)C1CC(=O)N(c2cccc([N+](=O)[O-])c2)C1 (stereo unspecified),–,inactive: 9.68%
COc1cc(O)c2c(=O)c3c(O)c(O)ccc3oc2c1OC,"inconclusive: 44.7 µM [inhibitor, partial curve]",–
COc1ccc(CC(=O)c2ccc(OC)c(OC)c2)cc1,"inconclusive: 89.1 µM [inhibitor, single point]",–
Cc1ccc(S(=O)(=O)N2CCC(C(=O)NCc3ccccc3Cl)CC2)cc1,"inconclusive: 89.1 µM [inhibitor, partial curve, poor fit]",–
COc1ccc(/C=N/Nc2ncc(Br)cn2)c(OC)c1,"inconclusive: 28.2 µM [inhibitor, single point]",–
Cc1ccccc1OCCn1cc(C(=S)N2CCN(C)CC2)c2ccccc21,"inconclusive: 89.1 µM [inhibitor, partial curve, poor fit]",–
Cc1cc(O)c(C(c2cccc(F)c2)N2CCN(c3ccccc3)CC2)c(=O)n1Cc1ccco1 (stereo unspecified),–,inactive: -12.5%
CN1/C(=C\C(=O)COC(=O)CNC(=O)c2ccccc2F)C(C)(C)c2ccccc21,–,inactive: -9.12%
CCCC(=O)NCCc1nc2cc([N+](=O)[O-])ccc2n1C,"inconclusive: 39.8 µM [inhibitor, partial curve, poor fit]",–
COc1ccc(NC(=O)c2sc3nc4c(cc3c2N)CN(Cc2ccccc2)CC4)c(OC)c1,"inconclusive: 79.4 µM [inhibitor, partial curve, poor fit]",–
COc1cc2nc(NCCCN3CCN(C)CC3)n3nc(-c4ccccc4)nc3c2cc1OC,active: 20 µM,–
CCC(CNc1cc(OC)cc2cccnc12)NC1CCCCC1 (stereo unspecified),"inconclusive: 11.2 µM [inhibitor, full curve, poor fit]",–
Cc1ccc2nc(-c3ccc(N=Nc4cc(S(=O)(=O)O)c5ccccc5c4O)cc3)sc2c1S(=O)(=O)O,active: 7.08 µM,–
COc1ccc(Cl)cc1NC(=O)c1cc2c(=O)n3ccccc3nc2s1,"inconclusive: 89.1 µM [inhibitor, single point]",–
CN(C)c1ccc(/C=C2\C(=O)/C(=C\c3ccc(N(C)C)cc3)c3ccccc32)cc1,–,inactive: 4.25%
Cc1c(-c2ccccc2)oc2c(C(=O)OCC(=O)Nc3ccc(C(N)=O)cc3)cccc2c1=O,"inconclusive: 20 µM [inhibitor, full curve]",–
O=C(NCCO)c1cccc2c1C(=O)c1ccccc1-2,–,inactive: -21.1%
O=C(Nc1cccc(S(=O)(=O)Nc2ccccc2F)c1)c1ccc2ccccc2n1,"inconclusive: 79.4 µM [inhibitor, partial curve]",–
CCN(CC)CCNC(=O)c1ccc(NC(=O)/C=C/c2ccc3ccccc3n2)cc1,"inconclusive: 79.4 µM [inhibitor, partial curve, poor fit]",–

Compound,Potency,"activity change, negative = inhibition"
Cc1nc2nc(-c3ccccc3)cc(=O)n2[nH]1,–,inactive: 1.71%
COc1ccc(CCN2C(=O)NC(NC(C)=O)(C(F)(F)F)C2=O)cc1OC (stereo unspecified),–,inactive: 12.4%
Cc1cc(C)cc(NC(=O)C2(c3ccccc3)CC2(Cl)Cl)c1 (stereo unspecified),"inconclusive: 56.2 µM [inhibitor, partial curve, poor fit]",–
O=C(O)c1cc(O)c2c(c1)[C@H]([C@H]1c3cc(C(=O)O)cc(O)c3C(=O)c3c(O[C@@H]4O[C@H](CO)[C@@H](O)[C@H](O)[C@H]4O)cccc31)c1cccc(OC3O[C@H](CO)[C@@H](O)[C@H](O)[C@H]3O)c1C2=O (stereo partly specified),active: 1.26 µM,–
C[C@H](NC(=O)C1CC(=O)N(c2ccc3c(c2)OCO3)C1)C(=O)NC1CCCC1 (stereo partly specified),–,inactive: 19.6%
CCOC(=O)c1cc(-c2ccc(OC)cc2)nc2c1c(C)nn2CCC(N)=S,"inconclusive: 31.6 µM [inhibitor, partial curve, poor fit]",–
O=C(O)CCCC(=O)Nc1cc([N+](=O)[O-])ccc1O,–,inactive: -3.55%
COCCNc1ccc(-c2nc(-c3cccc(C)c3)no2)cc1[N+](=O)[O-],–,inactive: 2.24%
COc1ccc(Nc2nc(C)nc3c2oc2ccccc23)cc1,"inconclusive: 79.4 µM [inhibitor, partial curve, poor fit]",–
Cc1ccccc1CS(=O)(=O)c1nnc([C@H](Cc2ccccc2)NC(=O)OC(C)(C)C)o1,"inconclusive: 79.4 µM [inhibitor, partial curve, poor fit]",–
Cc1ccc2c(c1C)-c1c(ccc(C)c1C)C(=O)C2=O,"inconclusive: 79.4 µM [inhibitor, partial curve, poor fit]",–
C=CCC[C@@H](Cc1ccc(F)cc1)C(=O)OC[C@@H](Cc1c[nH]c2ccccc12)NC(=O)[C@@H](CC=C)CC(=O)NCCO,"inconclusive: 79.4 µM [inhibitor, partial curve, poor fit]",–
Cc1ccc(C2C(/C=C3/SC(=S)NC3=O)=C(c3cccs3)Oc3ccccc32)cc1 (stereo unspecified),"inconclusive: 50.1 µM [inhibitor, partial curve]",–
CCCCCCSc1cc(-c2nc3ccc(Cl)cn3c2NCCCC)ccc1OC,"inconclusive: 79.4 µM [inhibitor, partial curve, poor fit]",–
CCNc1ccc(Br)cc(C(=O)/C=C/c2c(Cl)cccc2Cl)c1=O,"inconclusive: 56.2 µM [inhibitor, partial curve, poor fit]",–
COc1ccc(C2CC(=O)c3c([nH]c(C(=O)OCCOc4ccccc4)c3C)C2)cc1OC (stereo unspecified),"inconclusive: 79.4 µM [inhibitor, partial curve]",–
COc1ccc(CC(=O)NO)cc1OC,–,inactive: 18.3%
O=C1CCCC(O)=C1N=Nc1c(Cl)cc(Cl)cc1Cl,–,inactive: -0.519%
CCN(CC)CCn1c2c(c(SCC(=O)Nc3ccc4c(c3)OCCO4)nc1=O)CCCC2,–,inactive: -3.98%
CCn1nc(C)c(C(=O)Nc2cc(Oc3cc(C)cc(C)c3)cc([N+](=O)[O-])c2)c1C,"inconclusive: 89.1 µM [inhibitor, partial curve, poor fit]",–
Cc1cc(O)c(-c2cc(O)c(C)cc2O)cc1O,"inconclusive: 22.4 µM [inhibitor, full curve, poor fit]",–
COc1cc(/C=C/C=C2/CC/C(=C/C=C/c3ccc(O)c(OC)c3)C2=O)ccc1O,active: 39.8 µM,–
